The record followed here is the supplement of paper PMC9446081.

In all, about 39,000 compounds went through this assay and about 220 (0.56%) showed activity. The list shows a part of the results.
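Note: static incubation at 37 °C against the wild-type strain, values averaged over two biological replicates.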

In the assay the test system is Escherichia coli K-12 BW25113. Put plainly: relative growth (OD600 normalised to plate interquartile mean) (fraction); higher = less growth inhibition, active = 0.2 or less. Conditions: 50 µM; LB; incubation time: overnight (16-24 h).
Turning to `C[C@@H]1CN([C@H](C)CO)C(=O)Cc2cc(NS(=O)(=O)c3ccc(Cl)cc3)ccc2O[C@@H]1CN(C)C(=O)Nc1ccc(C(F)(F)F)cc1`, the relative growth is inactive: 0.993. As to `C=C(NC(=O)C(=C)NC(=O)c1csc(C2=N[C@H]3c4csc(n4)[C@H]4NC(=O)c5csc(n5)[C@H](C(C)(O)[C@@H](C)O)NC(=O)[C@H]5CSC(=N5)C(=CC)NC(=O)[C@H]([C@@H](C)O)NC(=O)c5csc(n5)[C@]3(CC2)NC(=O)[C@H](C)NC(=O)C(=C)NC(=O)[C@H](C)NC(=O)[C@H]([C@H](C)CC)N[C@@H]2C=Cc3c([C@H](C)O)cc(nc3[C@H]2O)C(=O)O[C@@H]4C)n1)C(N)=O` (stereo partly drawn), the relative growth is inactive: 1.02. For the compound `C[C@H](CO)N1C[C@H](C)[C@H](CN(C)S(=O)(=O)c2cccs2)Oc2ncc(C#CCN(C)C)cc2C1=O`, the relative growth was inactive: 1.06. `CCCCCc1ccccn1`: the relative growth is inactive: 0.974.

As to `CO[C@H]1CN(C)C(=O)c2ccc(NC(=O)Nc3ccc(Cl)cc3)cc2OC[C@H](C)N(C(=O)Nc2c(C)noc2C)C[C@@H]1C`, the relative growth was inactive: 0.981. Take `O=C(Nc1ccc(C(F)(F)F)cc1)Nc1ccc2c(c1)[C@H]1C[C@@H](CC(=O)N3CCc4ccccc4C3)O[C@H](CO)[C@H]1O2`: the relative growth is inactive: 1.01. For the compound `C[C@H](CO)N1C[C@H](C)[C@H](CN(C)Cc2ccc(-c3ccccc3)cc2)Oc2ccc(NC(=O)C3CCCCC3)cc2CC1=O`, the relative growth was inactive: 1.02.

With `CCCN(C)C[C@H]1OCCCC[C@@H](C)Oc2ccc(NS(=O)(=O)c3cn(C)cn3)cc2C(=O)N([C@@H](C)CO)C[C@H]1C`, the relative growth is inactive: 1. Take `CO[C@H]1/C=C\C=C(/C)C(=O)NC2=CC(=O)C=C(C2=O)[C@H](OC)[C@@H](C)C[C@H](OC)[C@H](O)[C@@H](C)/C=C(\C)[C@@H]1OC(N)=O`: the relative growth is inactive: 1. With `CCS(=O)(=O)Nc1ccc2c(c1)C(=O)N(C)C[C@@H](OC)[C@@H](C)CN(C(=O)c1ccc3c(c1)OCO3)[C@H](C)CO2`, the relative growth is inactive: 0.984. For `C[C@H](CO)N1C[C@H](C)[C@H](CN(C)Cc2ccc(-c3ccccc3)cc2)Oc2ccc(NC(=O)Nc3cccc4ccccc34)cc2CC1=O` the value was inactive: 1.04.

Regarding `COc1cccc(C(=O)Nc2ccc3c(c2)C(=O)N(C)[C@H]2CC[C@H](CC(=O)NCC4CC4)O[C@@H]2CO3)c1`, the relative growth is inactive: 1.02. `C[C@H]1CN([C@@H](C)CO)C(=O)c2cccc(NS(=O)(=O)c3ccc(Cl)cc3)c2O[C@@H]1CN(C)C(=O)Nc1cccc2ccccc12`: the relative growth is inactive: 1. For the compound `C[C@H]1CN([C@@H](C)CO)C(=O)c2cc(C#CCN(C)C)cnc2O[C@H]1CN(C)C(=O)c1ccc2c(c1)OCO2`, the relative growth was inactive: 1.01. With `C[C@H](CO)N1C[C@H](C)[C@@H](CN(C)S(=O)(=O)c2cn(C)cn2)Oc2ccc(NC(=O)C3CCCCC3)cc2C1=O`, the relative growth was inactive: 1.02. With `Cc1noc(C)c1S(=O)(=O)Nc1ccc2c(c1)CC(=O)N([C@@H](C)CO)C[C@@H](C)[C@H](CN(C)Cc1ccccc1)O2`, the relative growth was inactive: 1.01. The figure for `COCC(=O)Nc1ccc2c(c1)OC[C@@H](C)N(C(=O)Cc1ccccn1)C[C@H](C)[C@@H](OC)CN(C)C2=O` is inactive: 0.987; for `C[C@H](CO)N1C[C@H](C)[C@H](CN(C)S(=O)(=O)c2ccccc2)OCCCC[C@H](C)Oc2ccc(NC(=O)Nc3ccccc3)cc2C1=O` it is inactive: 1.02; for `Cc1noc(C)c1S(=O)(=O)Nc1ccc2c(c1)C(=O)N([C@H](C)CO)C[C@@H](C)[C@@H](CN(C)C(=O)Nc1ccccc1)O2` it is inactive: 1. For `CCNC(=O)NS(=O)(=O)c1sc(CC(C)C)cc1-c1ccc(Cn2c(-c3ccccc3)nc(OC)c2C=O)cc1` the value was inactive: 1.02. Regarding `Cc1noc(C)c1NC(=O)N(C)C[C@H]1Oc2c(NC(=O)C3CC3)cccc2C(=O)N([C@H](C)CO)C[C@H]1C`, the relative growth is inactive: 1.02. Consider `O=C1CNC(=S)N1CCc1ccccc1`, for which the relative growth is inactive: 0.975. Regarding `CN1CC2(CCNCC2)OC1=O`, the relative growth was inactive: 1.01. Regarding `CCOc1ccc(C(C)(C)N)cc1`, the relative growth is inactive: 1. For `C[C@@H]1CN([C@@H](C)CO)C(=O)c2cc(NC(=O)Nc3ccc(C(F)(F)F)cc3)ccc2O[C@@H](C)CCCCO[C@H]1CN(C)S(=O)(=O)c1ccc(Cl)cc1` the value was inactive: 1.02.

Consider `CCNC(=O)c1csc(N)n1`, for which the relative growth was inactive: 0.971. For `Cc1noc(C)c1NC(=O)Nc1ccc2c(c1)C(=O)N([C@H](C)CO)C[C@@H](C)[C@H](CN(C)CC1CC1)OCCCC[C@@H](C)O2` the value was inactive: 0.982; for `CCCN1CCCc2cc(CCN)ccc21`, inactive: 1.01. In the case of `CC(=O)N[C@H]1[C@@H](OCc2ccccc2)O[C@H](C(=O)O)[C@@H](OC(C)=O)[C@@H]1OC(C)=O`, the relative growth is inactive: 0.992. For `CO[C@H]1CN(C)C(=O)c2ccc(NC(=O)Nc3cccc(F)c3)cc2OC[C@@H](C)N(C(=O)Nc2c(C)noc2C)C[C@@H]1C` the value was inactive: 1.01. For `Cc1ncc([N+](=O)[O-])n1CCO` the value was inactive: 1.12; for `COc1ccc(S(=O)(=O)Nc2ccc3c(c2)CC(=O)N([C@@H](C)CO)C[C@H](C)[C@H](CN(C)C(=O)NC(C)C)O3)cc1`, inactive: 0.99. On to `COc1ccc(S(=O)(=O)Nc2ccc3c(c2)C(=O)N([C@H](C)CO)C[C@H](C)[C@@H](CN(C)C(=O)c2ccccc2)OCCCC[C@@H](C)O3)cc1`, for which the relative growth was inactive: 1.01. For `COc1ccc(CN(C)C[C@@H]2OCCCC[C@H](C)Oc3ccc(NS(=O)(=O)c4cccs4)cc3C(=O)N([C@@H](C)CO)C[C@@H]2C)cc1` the value was inactive: 1.

Consider `COCC#Cc1cnc2c(c1)C(=O)N([C@@H](C)CO)C[C@@H](C)[C@@H](CN(C)S(=O)(=O)c1ccccc1)O2`, for which the relative growth was inactive: 1.01. The figure for `C[C@H]1CN([C@@H](C)CO)C(=O)c2c(c3ccccc3n2C)-c2ccccc2CO[C@H]1CN(C)Cc1ccc2c(c1)OCO2` is inactive: 0.987; for `CNCCC(Oc1cccc2ccccc12)c1cccs1.Cl` (stereo not drawn) it is inactive: 0.907.

Take `COc1ccc(CN(C)C[C@H]2OCCCC[C@@H](C)Oc3ccc(NC(=O)Nc4ccc(OC)cc4)cc3C(=O)N([C@H](C)CO)C[C@H]2C)cc1`: the relative growth was inactive: 0.951.
